The campaign covered roughly 50,000 compounds. About 800 (1.6%) showed an effect of 50% or more. The list shows a part of the results.
These compounds were tested against Bcl-2-like protein 10 (Homo sapiens) (UniProt Q9HD36) (assay: Phenotype converters, Bcl-B/TR3 peptide binding displacement, primary biochemical FP (AID 1240;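 further: 0% = Bcl-B with tracer peptide and DMSO and 100% = tracer peptide lacking Bcl-B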)). Settings: GST-Bcl-B / FITC-TR3 peptide fluorescence polarization; stronger effect = higher value; compound at 3.75 mg/L.
Sequence of UniProt Q9HD36 (Q9HD36 whole entry, looked up): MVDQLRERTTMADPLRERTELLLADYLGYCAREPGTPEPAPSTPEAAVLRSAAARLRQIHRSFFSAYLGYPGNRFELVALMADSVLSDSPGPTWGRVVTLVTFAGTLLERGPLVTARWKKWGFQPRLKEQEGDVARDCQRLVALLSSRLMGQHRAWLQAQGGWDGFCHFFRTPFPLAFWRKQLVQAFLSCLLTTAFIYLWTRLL

Row | Compound | displacement
1 | COc1cccc(/C=C2\SC(=S)N(NC(=O)c3ccc([N+](=O)[O-])cc3)C2=O)c1 | 0%
2 | COc1ccc(CN2CCN(C(=O)CC(C)C)CC2)c(OC)c1OC | -16.4%
3 | COc1ccc(NC2CC(=O)N(c3ccccc3F)C2=O)cc1 (stereo not given) | -2.3%
4 | CC1(C)CC(=O)C(CCC#N)(CCC#N)C(=O)C1 | 20.4%
5 | CCCN1C(=O)c2ccccc2NC1c1ccccc1F (stereo not given) | 8.3%
6 | N/C(=N\OC(=O)c1ccc(F)cc1)c1ccc(Cl)cc1 | 0.4%
7 | COc1ccc2c(c1)C(C)CC(C)(C)N2C(=O)c1sc2cc([N+](=O)[O-])ccc2c1Cl (stereo not given) | -20.3%
8 | CCC1=NN(C(=O)c2cccc([N+](=O)[O-])c2)C(O)(c2ccncc2)C1 (stereo not given) | -18.8%
9 | CCn1c(O)c(N=NC(=O)c2ccccc2Cl)c2ccccc21 | -5.3%
10 | O=[N+]([O-])c1cccc(-c2noc(CCc3ccccc3)n2)c1 | 12.5%
11 | COC(=O)c1ccccc1NC(=O)CN(c1ccccc1)S(=O)(=O)c1ccccc1[N+](=O)[O-] | 15.9%
12 | O=C(CCc1ccccc1)Nc1ccc(Nc2ccccc2)cc1 | -2.5%
13 | CCC1=NN2C(=N)/C(=C/c3ccc(-c4ccc([N+](=O)[O-])cc4Br)o3)C(=O)N=C2S1 | 4%
14 | COC(=O)c1sc2nc(-c3ccccc3)nc(N3CCOCC3)c2c1C | 47.3%
15 | COc1ccc(C)cc1NC(=O)COc1ccccc1OC | -9.9%
16 | COc1ccc(Br)cc1/C=C/C(=O)Nc1ccc2ccccc2c1 | 11.6%
17 | CC1CCN(S(=O)(=O)c2cccc3cccnc23)CC1 | 5.2%
18 | Cn1c(-c2ccccc2)cc(O)c(C(=N)c2ccccc2)c1=O | -8.7%
19 | CC(=O)Nc1nc(C2CC2)cc(-c2ccco2)c1C#N | -10.7%
20 | O=C(/C=C/c1ccc([N+](=O)[O-])cc1)c1ccc(I)cc1 | 1.9%
21 | CCOc1ccc2c(c1)-c1c(ssc1=S)C(C)(C)N2C(=O)CSc1nnc(N)s1 | 13.3%
22 | CC(C)N1CCC(Nc2ccccc2)N1C=O (stereo not given) | 12.4%

Row | Compound | displacement
23 | NC(=O)c1ccccc1NC(=O)C1CC=CCC1C(=O)O (stereo not given) | -5.1%
24 | COc1cc2c(NCc3ccco3)cc(O)c(CC(=O)Nc3ccc(Cl)cc3)c2cc1OC | 13%
25 | C=CCNC(=S)NC(=O)/C=C/c1ccccc1 | 13.8%
26 | CCOC(=O)C1=C(O)/C(=C/c2ccc(OCC(=O)NCCc3ccccc3)cc2)N=C1C | 1.2%
27 | NC(=O)c1ccccc1NC(=O)c1ccccc1 | -2.8%
28 | Cc1cccc(NC(=O)CSC(N)=O)c1 | 7.1%
29 | O=c1oc(-c2cccs2)nc2cc(Cl)ccc12 | -3.2%
30 | CCN(C1=C(Cl)C(=O)N(c2ccccc2)C1=O)c1ccccc1 | 15.2%
31 | COC(=O)c1ccccc1N/C=C/C(=O)c1ccc(Br)cc1 | -2.6%
32 | Cc1cccc(N2CCN(S(=O)(=O)c3ccc(Br)cc3)CC2)c1 | -10%
33 | COCCOC(=O)C1=C(C)NC(C)=C(C(=O)OCCOC)C1c1ccc(-c2cccc(Cl)c2)o1 | 10.3%
34 | Cc1[nH]c(=O)c(C(=O)/C=C/c2ccccc2Cl)c2c1CCCC2 | 11%
35 | CCOC(=O)CNC1CC(C)(C)NC(C)(C)C1 | -1.2%
36 | COc1cc2ccccc2cc1C(=O)Nc1ccc(N2CCOCC2)cc1 | 16.8%
37 | Cc1ccc(C(C)C)c(OCC(O)Cn2cnc3ccccc32)c1 (stereo not given) | 1.1%
38 | COc1ccc(C(=O)Oc2cc(C(=S)N3CCOCC3)ccc2OC)cc1 | 12.7%
39 | C=CCNC(=O)COc1ccc(Br)c(C)c1 | -11.2%
40 | Cc1ccccc1C(=O)Nc1cc(C(N)=O)cc(C(N)=O)c1 | -11.5%
41 | Cc1cccc(C)c1NC(=O)CN1C(=O)c2ccccc2C1=O | 2.5%
42 | CCOC(=O)C1=C(C)N=c2s/c(=C\c3ccccc3OC)c(=O)n2C1c1ccc(C)cc1 (stereo not given) | -2.8%
43 | Cc1c(Cl)cccc1-c1ccc(C(=O)Nc2nccs2)o1 | 14.7%
44 | Cc1cc(C)c(NC(=O)COc2ccc(C)cc2Br)c(C)c1 | -7.2%

Row | Compound | displacement
45 | COC(=O)C1=C(C)N2C(=O)CSC2=NC1c1ccc2c(c1)OCO2 (stereo not given) | -0.6%
46 | O=C(CCCOc1ccccc1)NCCc1ccccc1 | -7.7%
47 | CCOc1ccccc1NC(=O)CN(c1ccc(OC)cc1)S(C)(=O)=O | 12.7%
48 | COc1ccc(/C=C2\SC(=S)N(CCC(=O)OC3CCCCC3)C2=O)cc1 | 4.7%
49 | CCCN1C/C(=C\c2ccc([N+](=O)[O-])cc2)C(=O)/C(=C/c2ccc([N+](=O)[O-])cc2)C1 | 2.5%
50 | O=[N+]([O-])c1cccc(C2Nc3ccc(Cl)cc3C3C=CCC32)c1 (stereo not given) | 13.1%
51 | COc1ccccc1NC(=O)c1ccccc1NC(=O)c1ccc(C)cc1 | 2.3%
52 | Cc1cc(Cl)ccc1OCC(=O)Nc1sc2c(c1C(N)=O)CCC(C)C2 (stereo not given) | 1.2%
53 | CN(C)c1ccc(C(=O)N2CCN(Cc3ccccc3)CC2)cc1 | 13.5%
54 | Cc1ccc(/C=C2\C(=O)NC(=S)N(c3ccc(Br)cc3C)C2=O)o1 | -5.3%
55 | Cc1nn(C)c(C)c1NC(=O)c1ccnn1C | 6.5%
56 | COC(=O)c1ccc(/C=C2\SC(=S)N(c3ccc(F)cc3)C2=O)cc1 | 7.5%
57 | NC(=O)c1cc2n(n1)C(C(F)(F)F)CC(c1ccco1)N2 (stereo not given) | 3.4%
58 | COc1ccc(NC(=O)COc2ccc3ccccc3c2)cc1Cl | -3.9%
59 | CCCCOc1ccc(/C=C(/C#N)c2nc3ccc(C)cc3[nH]2)cc1OC | 3.6%
60 | CC(=O)c1ccc(N2C(=O)C3C4C=CC(O4)C3C2=O)cc1 (stereo not given) | 7.6%
61 | CN(C)C1(c2cccs2)CS(=O)(=O)C1 | 8.9%
62 | CC12CCC(C(=O)N(CN3CCCCC3)C1=O)C2(C)C (stereo not given) | -6.5%
63 | CCn1c2ccccc2c2cc(CN3CCN(C(=O)c4cc(OC)c(OC)c(OC)c4)CC3)ccc21 | 6.8%
64 | CCOc1ccc(NC(=O)c2ccc(C#CC(C)(C)O)cc2)cc1 | -1.7%
65 | CCOc1cccc(/C=C2/SC(=S)NC2=O)c1O | 5.7%
66 | COc1cc2c(cc1OC)C(C(Cl)(Cl)Cl)OC(=O)C2 (stereo not given) | -4.2%

Row | Compound | displacement
67 | COc1cc(C(=O)Oc2ccc(C(=S)N3CCOCC3)cc2)cc(OC)c1OC | 10.9%
68 | Cc1cc(Cl)ccc1NC(=O)C(=O)NCc1cccnc1 | 12.4%
69 | O=[N+]([O-])c1ccc(S(=O)(=O)N2CCSC2c2ccc(Cl)cc2)cc1 (stereo not given) | 7.3%
70 | O=C(Oc1ccccc1C(=S)N1CCOCC1)c1cccc([N+](=O)[O-])c1 | 10.7%
71 | Cc1cccc(NC(=O)c2ccc(C(=O)Nc3cccc(C)n3)cc2)n1 | 0.1%
72 | CCc1c(C)nc2ccccc2c1SCC(=O)O | -4.3%
73 | COc1ccc(C(=O)CSc2nc(C)cc(=O)[nH]2)cc1 | 11.4%
74 | COC(=O)C1=C(C)NC2=C(C(=O)CC(C)(C)C2)C1c1ccc(OC)cc1OC (stereo not given) | 11.9%
75 | CCOC(=O)C1=C(O)/C(=C/c2ccc(OCC)cc2)SC1=Nc1ccccc1 | -19.7%
76 | CN(C)/C=C1\Nc2ccc(Br)c(Cl)c2C1=O | 7.7%
77 | CCOC(=O)C(CCCCOc1cc(C)cc(C)c1)C(=O)OCC | 9%
78 | O=C(O)Cc1nonc1NCn1nnc2ccccc21 | 15.7%
79 | CCC1=NC(c2ccccc2)N(O)C1(C)C (stereo not given) | 7.6%
80 | O=S(=O)(c1ccc(Oc2ccccc2)cc1)N1CCOCC1 | -4.8%
81 | COCCN1C(=O)C(=O)/C(=C(/O)c2ccccc2)C1c1ccc(F)cc1 (stereo not given) | -20.5%
82 | O=C(CN1C(=O)c2cccc3cccc1c23)Nc1ccc2c(c1)OCO2 | -4.6%
83 | CCOC(=O)c1c(-c2ccccc2)csc1NC(=O)c1ccco1 | -5.4%
84 | COc1cc(C(C2=C(O)CC(C)(C)CC2=O)C2C(=O)CC(C)(C)CC2=O)ccc1OC(C)=O (stereo not given) | 0.7%
85 | Cc1ccccc1C(=O)Nc1sc2c(c1C(=O)N1CCN(Cc3ccccc3)CC1)CCC2 | -9.8%
86 | COc1ccc(C2CC(=O)C3=C(C2)Nc2ccccc2NC3c2cccc3ccccc23)cc1OC (stereo not given) | 1.8%
87 | COc1ccccc1N1C(=O)C2C(C1=O)C1C=CC2C12CC2 (stereo not given) | 15.1%
88 | COc1cc(/C=c2\sc3nc4ccccc4n3c2=O)ccc1OCCOc1ccccc1 | 11.9%

Row | Compound | displacement
89 | C=CCn1c(Cc2ccccc2)nnc1SCC(O)Cn1c2ccccc2c2ccccc21 (stereo not given) | 2.8%
90 | O=S(=O)(c1ccc(NC(=S)Nc2ccc(F)cc2)cc1)N1CCCC1 | -8.8%
91 | CNC(=O)C(=O)Nc1ccc(OC)cc1OC | 12.8%
92 | COc1cccc(NC(=O)/C(NC(=O)c2ccccc2)=C2\c3ccccc3-c3ccc([N+](=O)[O-])cc32)c1 | 12.5%
93 | CCn1c2ccccc2c2cc(NS(=O)(=O)c3cccc([N+](=O)[O-])c3)ccc21 | -3.6%
94 | O=C1NC2=C(C(=O)c3ccccc32)C(c2ccccc2)N1 (stereo not given) | -6%
95 | Cc1nc2ccccc2n1C(=O)N(C)C | 6.1%
96 | COc1ccc(Cl)cc1NC(=O)C1=C(C)NC(=O)NC1c1cccc2ccccc12 (stereo not given) | 15.4%
97 | COc1ccc(-n2c(O)c(/C=C3/C(C)=Nc4ccccc43)c(=O)[nH]c2=O)cc1 | -6%
98 | COc1cc(C(=O)Nc2ccc(NC(=O)c3cccs3)c(C)c2)cc(OC)c1OC | -0.3%
99 | COC(=O)c1ccccc1NC(=O)c1cc(OC(C)=O)cc(C(=O)Nc2ccccc2C(=O)OC)c1 | 10.9%
100 | C#CCOc1ccc(/C=C2\C(=O)NC(=O)N(c3ccc(Br)c(C)c3)C2=O)cc1 | -67.8%
101 | Cc1ccc(C2Nc3ccc4ncccc4c3C3=C2C(=O)CC(C)(C)C3)cc1 (stereo not given) | 5.7%
102 | Cn1c(=O)c2c(nc(NCCOc3ccc(F)cc3)n2C)n(C)c1=O | -2.5%
103 | Nc1ccc(C(=O)Nc2ccccc2C(=O)O)cc1 | -1.2%
104 | Nc1c(C(=O)C2CC2)sc2nc(-c3cccs3)cc(C(F)(F)F)c12 | 52.1%
105 | COc1ccc(/C(C)=N/NC(=O)c2ccncc2)cc1[N+](=O)[O-] | 2.8%
106 | Cc1nn(-c2ccc(Cl)cc2Cl)c2c1C(=O)CC(C)(C)C2 | 14%
107 | CC(c1ccccc1)C1CC(=O)N(c2ccc(I)cc2)C1=O (stereo not given) | 10.3%
108 | Cc1onc(-c2ccccc2)c1C(=O)Nc1ccc2c(c1)OCO2 | 4.6%
109 | CCOc1cc(/C=C2\SC(N)=NC2=O)cc(Br)c1OS(=O)(=O)c1ccc(C)cc1 | 0.4%
110 | Cc1cc(O)c(C(C)C)cc1N1C(=O)c2ccc3c4c(ccc(c24)C1=O)CC3 | -16.2%
